According to the supplement of paper PMC4166925:
± gives the standard deviation of the averaged measurements. Over roughly 33,000 sequences, “E-score (dimensionless, -0.5 to 0.5)” has its median near -0.049; the highest 2% begin near 0.37. Some of the results follow.

system: T1, PmTbr T-box DNA-binding domain (GST fusion); assay: PBM E-score of 8-mer (E-score (dimensionless, -0.5 to 0.5)); Tbr is Tbrain of the sea star Patiria miniata (Pm) or the sea urchin Strongylocentrotus purpuratus (Sp); higher = stronger binding preference; most listed sequences are background and not binding sites; settings: the construct has about 5 more residues each side
T1 sequence: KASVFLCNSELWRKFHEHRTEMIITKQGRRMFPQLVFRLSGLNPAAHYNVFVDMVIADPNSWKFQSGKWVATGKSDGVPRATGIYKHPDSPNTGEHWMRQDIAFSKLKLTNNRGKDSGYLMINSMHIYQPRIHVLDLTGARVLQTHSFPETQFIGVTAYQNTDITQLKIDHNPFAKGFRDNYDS
Outline: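 Universal Agilent oligonucleotide arrays, made double-stranded by primer extension, were incubated with 200 nM GST-fused Tbr T-box DNA-binding domain in PBS (pH 7.5). The protein was expressed in BL21 E. coli at 20 °C and purified by glutathione affinity chromatography. After scanning and quantification, the Universal PBM Analysis Suite assigned an enrichment E-score to each ungapped 8-mer, averaged over duplicate arrays.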

Point of comparison: GCAAAGGA, “PBM E-score of 8-mer” value -0.229 ± 0.021. Against it:
- CTATTTCA — higher, -0.0412 ± 0.045
- AAATCATA — higher, -0.131 ± 0.0072
- CGCCAGGA — higher, 0.116 ± 0.013
- AGCGACGG — higher, -0.00054 ± 0.023
- ACGAGCAG — higher, 0.0386 ± 0.033
- ACATTGGC — higher, 0.167 ± 0.058
- ACCGTCGT — higher, 0.162 ± 0.045
- CATCTTCC — higher, 0.0383 ± 0.0049
- CACCGGAC — higher, -0.0947 ± 0.019
- GGGCGAAC — within error, -0.0669 ± 0.16
- CGGGCGAA — higher, -0.155 ± 0.051
- GTCGGTTA — higher, 0.057 ± 0.032
- CGGAGAGA — higher, -0.12 ± 0.012
- CAGGATGG — higher, -0.144 ± 0.021
- AGGCGAAA — higher, -0.0128 ± 0.028
- TAGCGATA — higher, 0.0784 ± 0.028
- AACCATGA — within error, -0.158 ± 0.067
- CAGGTTAC — higher, 0.0929 ± 0.012
- ATCCAACG — higher, 0.073 ± 0.08
- AATGCATT — within error, -0.179 ± 0.036
- AAGGAAAC — higher, -0.0735 ± 0.021
- ACCCAGTG — higher, -0.006 ± 0.002
- GACGGGAC — higher, 0.0433 ± 0.035
- GAATCCAA — higher, -0.196 ± 0.0059
- ACACACTA — higher, 0.139 ± 0.024
- ATGTCCGA — within error, -0.194 ± 0.043
- AGTGGACC — higher, -0.1763 ± 0.0016
- AATGGGGC — higher, -0.0789 ± 0.075
- CAGGGATG — higher, -0.0936 ± 0.059
- CTGTAACC — higher, -0.0689 ± 0.0016
- CGATTTAA — higher, -0.0602 ± 0.0088
- CATTAAAC — higher, -0.157 ± 0.051
- GCTCTCCC — lower, -0.302 ± 0.035
- AAAATATT — higher, -0.0443 ± 0.025
- AAAGCATG — higher, -0.0507 ± 0.012
- CCGGGAAA — higher, 0.188 ± 0.077
- ATTATGCA — within error, -0.228 ± 0.023
- GGGAGGGA — within error, -0.195 ± 0.056
- CATAAATC — higher, -0.0662 ± 0.0033
- GATTTGGA — higher, 0.00012 ± 0.018
- GAGTAACA — higher, 0.152 ± 0.041
- ATCTTCTA — higher, -0.0827 ± 0.079
- AAGGGTCA — higher, -0.0911 ± 0.0054
- ACGGAAGC — within error, -0.177 ± 0.081
- CACCCTGC — higher, 0.246 ± 0.059
- GCATTCCC — higher, -0.058 ± 0.03
- TACCTCAA — higher, -0.132 ± 0.028
- CGCCAGCG — higher, 0.188 ± 0.011
- AAGGTTTA — within error, -0.14 ± 0.076
- TTGTGAAA — higher, 0.344 ± 0.027
- ACATGATC — higher, 0.0023 ± 0.0017
- ATATTCCC — higher, -0.0661 ± 0.016
- GAATTGCC — higher, 0.0509 ± 0.048
- ACATACCC — within error, -0.191 ± 0.11
- ATCAACTA — higher, -0.00773 ± 0.015
- CAAGAGGA — higher, 0.00872 ± 0.06
- AAAGCAGA — higher, -0.068 ± 0.082
- GACCAACC — higher, -0.166 ± 0.0031
- GTCACCTA — higher, 0.4173 ± 0.0026
- GTCAGTCA — higher, -0.0381 ± 0.0097
- CTGTATAC — higher, 0.00361 ± 0.024
- ACGATTGC — higher, 0.0801 ± 0.0089
- ACTTAATC — higher, -0.0608 ± 0.043
- GGCATCAC — higher, 0.196 ± 0.028
- GGTATCAC — higher, 0.318 ± 0.041
- ACAGATAC — higher, -0.0952 ± 0.059
- GTACAGCA — higher, -0.0813 ± 0.032
- ATACACAT — higher, 0.0509 ± 0.064
- AGCCTAGG — higher, -0.164 ± 0.016
- AATTCGGT — within error, -0.248 ± 0.0088
- ACCTTAAA — higher, 0.0121 ± 0.081
- AGGTTTTC — within error, -0.154 ± 0.083
- GAATAATA — within error, -0.234 ± 0.075
- ACAAGGAT — higher, -0.187 ± 0.017
- GACGGTTA — higher, -0.0437 ± 0.029
- CTGGTGAA — higher, -0.00191 ± 0.054
- CTACGTAC — higher, -0.123 ± 0.039
- ACGGAACC — higher, -0.0495 ± 0.058
- CATTATCG — higher, 0.08453 ± 0.00072
- ATCGGTCA — higher, -0.143 ± 0.039
- ATAAAAAG — higher, 0.00899 ± 0.013
- GGGAATAA — higher, -0.129 ± 0.002
- AAAGCGAC — higher, 0.116 ± 0.019
- CCTATACA — within error, -0.193 ± 0.089
- CCATCGCC — higher, 0.0863 ± 0.027
- CACGGTGC — higher, 0.189 ± 0.018
- ACGACCCG — higher, 0.102 ± 0.046
- ACGGGGGA — within error, -0.245 ± 0.059
- GGATTTGA — within error, -0.183 ± 0.035
- CGTCCCCA — higher, -0.0881 ± 0.11
- CCGCTATC — higher, 0.177 ± 0.0022
- CTCTGCAC — higher, 0.137 ± 0.033
- AAAGCACT — higher, -0.0471 ± 0.0091
- AATACGCC — higher, -0.153 ± 0.045
- GCTGGCCC — within error, -0.192 ± 0.046
- CTTTACAC — higher, 0.323 ± 0.039
- AAGCGTCC — within error, -0.169 ± 0.057
- CAGCAGAG — higher, -0.00019 ± 0.033
- AGATATGC — higher, -0.0212 ± 0.079
- AAAAGTCA — higher, -0.156 ± 0.0066
- CGCTAAAG — higher, 0.296 ± 0.022
- AAGGTACA — lower, -0.288 ± 0.034
- ACTTGTGC — higher, -0.0472 ± 0.024
- CAAAGAGA — higher, -0.0887 ± 0.031
- AAATCCTC — within error, -0.274 ± 0.054
- ATAACTCC — higher, -0.168 ± 0.022
- TCGTTGAA — higher, -0.0542 ± 0.038
- CATATACA — higher, 0.047 ± 0.0093
- CTAGGTAC — higher, -0.0188 ± 0.026
- ACCGAGCT — higher, -0.161 ± 0.027
- GGATGCCC — higher, -0.0684 ± 0.075
- CATCCCAG — higher, -0.0209 ± 0.0098
- ATGGTCAA — higher, -0.0586 ± 0.057
- CGCAGACA — higher, 0.101 ± 0.039
- CATAGTGA — higher, 0.149 ± 0.0089
- ATATTCCA — higher, -0.146 ± 0.036
- CTGCACCC — higher, -0.036 ± 0.0066
- CTATTTTC — higher, 0.0583 ± 0.037
- ATGACGGC — higher, 0.0072 ± 0.031
- CGAGGAAA — within error, -0.11 ± 0.12
- GCGCTGAC — higher, 0.122 ± 0.077
- CTAATTCC — higher, -0.11 ± 0.034
- AGGCGCAT — higher, -0.116 ± 0.052
- AGTCACGG — within error, -0.168 ± 0.063
- CACACGCC — higher, 0.258 ± 0.031
- CGCTTTGC — higher, -0.129 ± 0.036
- GTCTTCTA — within error, -0.183 ± 0.04
- CAAGCGCG — higher, 0.192 ± 0.0043
- AGAAAGGG — within error, -0.248 ± 0.041
- GGCTAATA — lower, -0.326 ± 0.0039
- ACAAGCTG — higher, -0.0569 ± 0.1
- CGAGATCC — higher, 0.0268 ± 0.01
- AGGAGGTG — higher, 0.428 ± 0.0078
- ATCGAGAA — higher, 0.0149 ± 0.02
- CACCTAAA — higher, 0.368 ± 0.0085
- AAGCAGTA — lower, -0.258 ± 0.0043
- CATGGTCA — higher, -0.0583 ± 0.024
- GCGTAGCC — lower, -0.2639 ± 0.0012
- CTGGCCGA — within error, -0.272 ± 0.051
- ACAATGGC — higher, -0.0751 ± 0.008
- GTACTGAA — higher, -0.0918 ± 0.062
- CGGATCCC — higher, -0.097 ± 0.024
- AGACTTGC — higher, 0.249 ± 0.011
- CTGGCAGC — higher, 0.118 ± 0.11
- ACGCGTCC — higher, 0.0939 ± 0.031
- AGCATTTA — higher, 0.132 ± 0.0024
- GATTACCC — higher, -0.178 ± 0.028
- GATAGGCC — within error, -0.144 ± 0.074
- CAAAATCG — higher, 0.0992 ± 0.026
- ACGTCCCG — higher, -0.0297 ± 0.056
- GACCCGAA — higher, 0.153 ± 0.094
- CCTAAGGC — higher, -0.16 ± 0.022
- GCGAGACA — higher, 0.153 ± 0.038
- CAATCATC — higher, 0.0678 ± 0.054
- AGTTCTGG — within error, -0.166 ± 0.044
- ACCATGCA — higher, -0.124 ± 0.067
- CAATCATG — higher, 0.00721 ± 0.038
- GATTCGCA — higher, 0.361 ± 0.02
- ACCGCCAT — higher, -0.0231 ± 0.013
- AAGCCCAC — higher, -0.107 ± 0.033
- CTTCGCCA — higher, 0.205 ± 0.017
- CAATAATA — higher, -0.0437 ± 0.071
- CCCAAACC — within error, -0.29 ± 0.041
- CAGCCTTA — higher, -0.125 ± 0.016
- AAGTGGAA — higher, -0.00496 ± 0.029
- CGAACCTC — higher, 0.0092 ± 0.063
- ACTGGGCC — lower, -0.326 ± 0.025
- AACGGTGC — higher, 0.229 ± 0.035
- AGCACCGC — higher, 0.0529 ± 0.038
- AGCTGAAG — higher, -0.169 ± 0.022
- TAGAAGCA — higher, -0.118 ± 0.037
